The record followed here is publication PMC4336329 (PLoS ONE, 2015).

Among all 310,000 compounds or so, about 2,200 (0.71%) showed an effect of 50% or more. The effect is printed as a negative number. Some of the results follow. Where a SMILES comes first, the peptide text is derived from it. The star is where a group is joined. OBn = c1ccc(CO*)cc1

Chain of human ether-à-go-go-related gene (hERG) potassium channel (Q12809 whole entry, looked up): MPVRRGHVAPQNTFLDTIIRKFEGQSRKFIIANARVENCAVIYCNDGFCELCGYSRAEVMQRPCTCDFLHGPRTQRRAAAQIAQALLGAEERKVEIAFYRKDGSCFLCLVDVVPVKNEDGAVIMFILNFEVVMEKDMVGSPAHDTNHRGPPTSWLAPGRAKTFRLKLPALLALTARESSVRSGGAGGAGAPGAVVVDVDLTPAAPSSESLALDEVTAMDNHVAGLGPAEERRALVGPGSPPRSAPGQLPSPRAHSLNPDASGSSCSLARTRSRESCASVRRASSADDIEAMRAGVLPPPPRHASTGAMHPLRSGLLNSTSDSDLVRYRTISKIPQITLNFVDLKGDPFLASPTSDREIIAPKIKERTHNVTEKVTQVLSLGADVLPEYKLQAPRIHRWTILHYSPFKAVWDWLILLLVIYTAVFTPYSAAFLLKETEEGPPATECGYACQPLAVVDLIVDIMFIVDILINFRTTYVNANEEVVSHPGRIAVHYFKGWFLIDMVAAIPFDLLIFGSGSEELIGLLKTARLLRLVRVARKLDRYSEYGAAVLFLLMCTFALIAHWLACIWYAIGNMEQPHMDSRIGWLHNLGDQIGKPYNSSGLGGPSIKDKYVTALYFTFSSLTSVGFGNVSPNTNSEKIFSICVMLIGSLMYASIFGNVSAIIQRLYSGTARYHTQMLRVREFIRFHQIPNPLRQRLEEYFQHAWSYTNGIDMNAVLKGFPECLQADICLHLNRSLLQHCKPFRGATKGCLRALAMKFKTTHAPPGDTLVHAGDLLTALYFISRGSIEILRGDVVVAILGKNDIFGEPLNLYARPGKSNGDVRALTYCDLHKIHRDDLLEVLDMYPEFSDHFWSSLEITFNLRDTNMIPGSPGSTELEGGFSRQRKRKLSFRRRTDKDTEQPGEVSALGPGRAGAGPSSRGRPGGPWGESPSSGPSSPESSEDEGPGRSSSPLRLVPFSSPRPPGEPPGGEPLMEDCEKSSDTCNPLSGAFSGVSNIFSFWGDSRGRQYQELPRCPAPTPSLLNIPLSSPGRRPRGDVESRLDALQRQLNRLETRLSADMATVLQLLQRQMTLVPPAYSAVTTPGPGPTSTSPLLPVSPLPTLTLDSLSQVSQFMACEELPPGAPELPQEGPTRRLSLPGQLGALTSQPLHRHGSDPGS

The test concerns the target human ether-à-go-go-related gene (hERG) potassium channel (human, UniProt Q12809). As to the kind of experiment: primary screen, population patch clamp on CHO cells stably expressing hERG.
Regarding `c1ccc(CN2C3=NCCN3c3ccccc32)cc1`, the “hERG current change (%, negative = inhibition) at 1uM” value is reported as 2.38%.

Turning to `Cc1cc(C)cc(NS(=O)(=O)c2ccc3oc(=O)ccc3c2)c1`, the “hERG current change (%, negative = inhibition) at 1uM” value was -13.4%.

Regarding `Cc1nnc(NC(=O)C23CC4CC(C)(CC(C)(C4)C2)C3)s1`, the “hERG current change (%, negative = inhibition) at 1uM” value came to 18.5%.

On to `N=c1c2c3c(sc2ncn1CCCO)CCCC3`, for which the “hERG current change (%, negative = inhibition) at 1uM” value is -3.83%.

As to `Cc1cccc(NS(=O)(=O)c2ccc3c(c2)CCN3C(=O)CCC(=O)O)c1`, the “hERG current change (%, negative = inhibition) at 1uM” value is on record as 18.6%.

On to `COc1ccc(/C=N/N=C2/NC(=O)C(CC(=O)NC(C)C)S2)cc1` (stereo not shown), for which the “hERG current change (%, negative = inhibition) at 1uM” value turned out to be 5.58%.

For `COC(=O)C1CSC(C(=O)OC)N1C(=O)CN1CCN(c2ccccc2)CC1` (stereo not shown), the “hERG current change (%, negative = inhibition) at 1uM” value stood at 17.2%.

Consider `Cc1occc1-c1nnc(SCC(=O)N2c3ccccc3CCc3ccccc32)n1C`, for which the “hERG current change (%, negative = inhibition) at 1uM” value worked out at 8.53%.

`CCO.CN1CCC2(CC1)C1CN(C)CC=C1C(C#N)=C(N)C2(C#N)C#N.O` (stereo not shown): the “hERG current change (%, negative = inhibition) at 1uM” value was found to be 5.51%.

`O=C(Cc1ccccc1)NCC(=O)OCc1ccc([N+](=O)[O-])cc1`: the “hERG current change (%, negative = inhibition) at 1uM” value was 3.3%.

As for `COc1ccc(NC(=O)CSCc2cc(=O)n3ccsc3n2)cc1`, the “hERG current change (%, negative = inhibition) at 1uM” value was determined as 13.4%.

On to `CC(=O)c1c(-c2ccc(C)cc2)nc2c3ccccc3ccn12`, for which the “hERG current change (%, negative = inhibition) at 1uM” value is on record as 13.7%.

Regarding `Cc1cnn(-c2cc(N/N=C/c3ccccc3Cl)ncn2)c1`, the “hERG current change (%, negative = inhibition) at 1uM” value is given as 15.2%.

On to `CC(C(=O)O)n1nnc2ccccc21` (stereo not shown), for which the “hERG current change (%, negative = inhibition) at 1uM” value was 10.7%.

As for `COC(=O)COC(=O)c1ccc(O)cc1`, the “hERG current change (%, negative = inhibition) at 1uM” value is on record as -12.9%.

With `CCOC(=O)C1=C(CSc2nc(-c3ccncc3)ccc2C#N)OC(N)=C(C#N)C1c1ccc(OC)cc1` (stereo not shown), the “hERG current change (%, negative = inhibition) at 1uM” value was 2.15%.

Regarding `CCSc1ccc([C@@H]2[C@@H]3C(=O)N(CC)C(=O)[C@@H]3[C@]3(C(=O)OC)CCCCN23)cc1.O=C(O)C(F)(F)F`, the “hERG current change (%, negative = inhibition) at 1uM” value turned out to be 7.91%.

With `O=C(Nc1ccc2c(c1)OCCO2)C1CCCN(c2ncccn2)C1` (stereo not shown), the “hERG current change (%, negative = inhibition) at 1uM” value stood at 9.02%.

In the case of `COc1cccc(-c2ccc3ncnc(NCc4cccc(C)c4)c3c2)c1`, the “hERG current change (%, negative = inhibition) at 1uM” value is on record as 5.75%.

Consider `O=C(OCC(=O)N1CCOCC1)c1ccc[nH]c1=O`, for which the “hERG current change (%, negative = inhibition) at 1uM” value is recorded as 7.16%.

With `COC(C(=O)Nc1ccc(S(=O)(=O)Nc2ccc(F)cc2)cc1)c1ccccc1` (stereo not shown), the “hERG current change (%, negative = inhibition) at 1uM” value amounted to 7.53%.

As to `CCN1CCc2c(sc(NC(=O)c3ccc(S(=O)(=O)N4CCCCCC4)cc3)c2C(=O)NC)C1`, the “hERG current change (%, negative = inhibition) at 1uM” value is reported as 7.02%.

On to `CCC(C)NC(=O)C1c2cc(OC)c(OC)cc2C(=O)N(C)C1c1cccs1` (stereo not shown), for which the “hERG current change (%, negative = inhibition) at 1uM” value was found to be 5.1%.

As for `CCC1=NN2C(=N)/C(=C\c3ccc(OCCOc4ccc(NC(C)=O)cc4)c(OC)c3)C(=O)N=C2S1`, the “hERG current change (%, negative = inhibition) at 1uM” value was found to be 22.6%.

On to `Cl.N#CC(c1ccccc1)C1CCN(Cc2ccccc2)CC1` (stereo not shown), for which the “hERG current change (%, negative = inhibition) at 1uM” value is reported as -13.2%.

Regarding `C/C=C/c1ccc(OCC(O)CN2CCCCCCC2)c(OC)c1` (stereo not shown), the “hERG current change (%, negative = inhibition) at 1uM” value is -6.44%.

As for `Cc1ccc(C(CNS(=O)(=O)c2ccc([N+](=O)[O-])cc2)N2CCN(C)CC2)cc1` (stereo not shown), the “hERG current change (%, negative = inhibition) at 1uM” value was -49.1%.

Regarding `O=[N+]([O-])c1ccc(N/N=C/c2c[nH]c3ccccc23)cc1`, the “hERG current change (%, negative = inhibition) at 1uM” value was 12.3%.

As to `O=C(c1ccc([N+](=O)[O-])s1)N1CCN(c2cccc(Cl)c2)CC1`, the “hERG current change (%, negative = inhibition) at 1uM” value was -10.9%.

As to `Cc1c(Br)c([N+](=O)[O-])nn1C(C)C(=O)Nc1c(C)n(C)n(-c2ccccc2)c1=O` (stereo not shown), the “hERG current change (%, negative = inhibition) at 1uM” value was 0.944%.

Turning to `O=C1N2CCSC2=NC1(NS(=O)(=O)c1ccccc1)C(F)(F)F` (stereo not shown), the “hERG current change (%, negative = inhibition) at 1uM” value is 1.48%.

As for `CC(=O)c1cc(C(=O)N2CCc3c([nH]c4ccccc34)C2CC(C)C)[nH]n1` (stereo not shown), the “hERG current change (%, negative = inhibition) at 1uM” value was 14.5%.

With `COc1ccc(CSc2nncn2N)cc1[N+](=O)[O-]`, the “hERG current change (%, negative = inhibition) at 1uM” value is on record as 14.2%.

As for `C=CCNc1nc(Nc2ccc([N+](=O)[O-])cc2)nc(OCC)n1`, the “hERG current change (%, negative = inhibition) at 1uM” value stood at 12%.

For the compound `CCCOc1ccc(C(=O)NCC(c2ccco2)N(C)C)cc1OC` (stereo not shown), the “hERG current change (%, negative = inhibition) at 1uM” value was determined as 7.23%.

With `COc1ccccc1NC(=O)C1CCN(C(=O)c2ccco2)CC1`, the “hERG current change (%, negative = inhibition) at 1uM” value is reported as 19.8%.

`O=C(Nc1cccc(-c2csc(-c3ccccc3)n2)c1)c1cccs1`: the “hERG current change (%, negative = inhibition) at 1uM” value is 9.82%.

Consider `COCCNC(=O)c1sc2ncn(CC(=O)Nc3ccc(C)c(Cl)c3)c(=O)c2c1C`, for which the “hERG current change (%, negative = inhibition) at 1uM” value was found to be 14.8%.

`Cc1cc([N+](=O)[O-])ccc1NCc1ccc2ccccc2c1`: the “hERG current change (%, negative = inhibition) at 1uM” value turned out to be 13.8%.

For `Cc1cc2ncn(CCOc3ccccc3C#N)c2cc1C`, the “hERG current change (%, negative = inhibition) at 1uM” value is -4%.

As for `C#CCOCCOCCOCCNc1nc(N2CCN(C(=O)C([C@@H](C)CC)n3cc(C(N)CC(C)C)nn3)CC2)nc(N2CCN(C(=O)[C@H](CCC(=O)O)n3cc(C(N)[C@H](C)CC)nn3)CC2)n1.Cl` (stereo partly shown), the “hERG current change (%, negative = inhibition) at 1uM” value came out at 16.6%.

With `Cc1ccccc1Cn1nc(C)c(NC(=O)c2noc3c2CC(C(C)(C)C)CC3)c1C` (stereo not shown), the “hERG current change (%, negative = inhibition) at 1uM” value turned out to be 11.7%.

For `CCC(C)C(NC(=O)C(N)CC(C)C)C(=O)NC(CCC(=O)OCc1ccccc1)C(N)=O.Cl` (stereo not drawn) (H-Leu-Ile-Glu(OBn)-NH2; configuration not given here), the “hERG current change (%, negative = inhibition) at 1uM” value came to 7.77%.
